In the supplement of paper PMC10126150 one finds switch fluorescence ratio data, which are given here for 79 sequences.

Values marked as one replicate rest on one cluster of the flow cell; about a third of the high ones do not repeat.
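Also: ATP exposure 15 min at 22 °C before imaging.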

The data set deals with ATP. Description: switch fluorescence ratio, 500 uM ATP over buffer (Cy3 cluster intensity, sum of 5 cycles each) (fold (ratio)); higher = stronger signal-on switching upon ATP binding; sequences stand for … in TCGTCGGCAGCGTCAGATGTGTATAAGAGACAGTTTTTTTTTTTTTTTTTTTTTTTTT…TC. Particulars: aptamer strand: ATP DNA aptamer (quencher-CACCTGGGGGAGTATTGCGGAGGAAGG + anchor), 100 nM annealed; ATP concentration: 500 uM; one replicate. The essentials: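 Per cluster, summed Cy3 intensity from the target cycles was divided by that from the buffer cycles to give the fluorescence ratio, then averaged per switch-domain sequence. Clusters outside 100-1000 RFU were excluded. The Cy3-labelled switching-strand clusters, on a modified Illumina MiSeq flow-cell, were annealed to 100 nM quencher-labelled ATP aptamer and imaged in selection buffer, then after 15 min with 500 uM ATP at 22 °C, for five cycles with NaOH stripping and re-annealing between them.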
Consider GTGAGGACGG, for which the switch fluorescence ratio is 1.01. Turning to GCTGCGGGCG, the switch fluorescence ratio was determined as 1.04. For the sequence CTGCAAAAG, the switch fluorescence ratio is 1.06. Take AAGGGCAGCC: the switch fluorescence ratio was determined as 0.963. AATTGTTTTG: the switch fluorescence ratio was found to be 0.978. In the case of ATAAAGGCTA, the switch fluorescence ratio worked out at 0.973.

Consider GGTGCTGGAT, for which the switch fluorescence ratio was 1.09. CGTTAGATTT: the switch fluorescence ratio was found to be 1.01. In the case of CTGATATGCA, the switch fluorescence ratio was 0.982.

Consider GGTTAGTTCC, for which the switch fluorescence ratio was found to be 1.09. Turning to AAGCCATTAG, the switch fluorescence ratio was found to be 1.01. For the sequence CAGAAAGAT, the switch fluorescence ratio came out at 0.989. As for AATGGAAGAA, the switch fluorescence ratio amounted to 0.997.

As for GAAACACTGT, the switch fluorescence ratio came out at 0.982. In the case of TTTAGAATT it was 1.05; in that of TTTCCTAGTC, 1.06; in that of CTGAGTAGGT, 0.98.

As to AGGATCAGTA, the switch fluorescence ratio was 0.987.

For the sequence ATGCCCGGCA, the switch fluorescence ratio was found to be 0.951. Consider TCCACTCATT, for which the switch fluorescence ratio turned out to be 1.02. Turning to TCCGCTCCTC, the switch fluorescence ratio came to 3.67. Next, TAGTAATCTC: 1.14; CTAGGACGCT: 1.04. Next, TGCAAGGTGA: 1.05. As to AATGGCCATC, the switch fluorescence ratio turned out to be 0.964. Regarding CTTAAAGCCT, the switch fluorescence ratio worked out at 1.2.

As to TTTCACTGAT, the switch fluorescence ratio worked out at 1.02. On to TGCTTCAGTA, for which the switch fluorescence ratio is 1.04. CCATGGGTC: the switch fluorescence ratio worked out at 0.964. TACAGAGACT: the switch fluorescence ratio worked out at 1.03.

For the sequence TTAGGTCGAC, the switch fluorescence ratio was found to be 0.999.

Take TGGAGGCGAT: the switch fluorescence ratio worked out at 1.31. With TCCTCTAATG, the switch fluorescence ratio worked out at 1.51. As for TTGACTATCT, the switch fluorescence ratio was found to be 0.98. AATGGCAAGT: the switch fluorescence ratio was determined as 0.974. ATGGACGGGA: the switch fluorescence ratio came to 1.1.

Take TGGCTGGAA: the switch fluorescence ratio was 0.987. Next, TTAGGTCAAA: 0.995; TCGCCAGGGG: 1.05; GTATGGCCTT: 1.02. Regarding TGACATAGTG, the switch fluorescence ratio is 1.04.

Turning to ACTCTATAGT, the switch fluorescence ratio is 1.08. In the case of ATACAGAGGA it was 0.98. On to CAATGGTAAG, for which the switch fluorescence ratio is 0.931. Next, AATGAGCTTT: 0.937; AGTGGCTAGA: 0.98; TTATTGGAAG: 1. In the case of GAGTTCTTCT, the switch fluorescence ratio amounted to 1.02. On to GGCTGAGCT, for which the switch fluorescence ratio was determined as 0.927. On to GGACCATCTT, for which the switch fluorescence ratio was 1. In the case of CAATCTGGAT it was 1.01; in that of TGAGTATAG, 0.969; in that of AGGCATAAAA, 0.992.

In the case of AGGACTTCTA, the switch fluorescence ratio stood at 1.05. TAAATTCTA: the switch fluorescence ratio was determined as 0.972. TACCTATCT: the switch fluorescence ratio is 1.01. Consider GCTCTCATTT, for which the switch fluorescence ratio was 0.994. ATTACGGTA: the switch fluorescence ratio was 1.14.

As for AGAGGTTTAT, the switch fluorescence ratio stood at 1.02. As for CCATAACGGT, the switch fluorescence ratio was 1.65.

Take GAATGAGAAC: the switch fluorescence ratio came out at 1.01.

With ACTATATCCT, the switch fluorescence ratio was found to be 1.11. Take ACATGACTCA: the switch fluorescence ratio turned out to be 1.08.

With ACAGGGGGCA, the switch fluorescence ratio stood at 0.978.

Consider AAGAGGAATA, for which the switch fluorescence ratio was determined as 0.949. Next, GCGCCAGCAG: 0.978. Next, GTAGTTTTAG: 0.99. Next, CAGCAATGAA: 1.24; CACTTGGTTA: 1.05.

On to ATTGCAGGAT, for which the switch fluorescence ratio came to 0.985. Take GCCTGTGCA: the switch fluorescence ratio was found to be 0.998. For GGGAAAGTGC, the switch fluorescence ratio is 1.13. In the case of GATTTGATCC it was 1.04. Regarding CATCTACATC, the switch fluorescence ratio is 1.06. Next, GAAGTTCGTC: 0.893. In the case of AAATCAATGC it was 1.46; in that of TTATGGCACT, 1.03; in that of ACGTCAGCTG, 1.01. As for TAGGCGTGCA, the switch fluorescence ratio was found to be 1.04.
